{"source": "the supplement of paper PMC8728848", "binders": {"B1": {"name": "SP16664D-bth-476-27-476 (Bacteroides thetaiotaomicron) (protein)", "chain": "DDLEVGKNIDESAYSGIYENNAYLRDGKSNLVSKVVELHGETYATTVKMGLSKTPNTATSAKVKIDAAYLETYNKAHNTDFALYPQDLVTFANEGILTVNANTKSAEVEMTIRAGEGLQEDKTYAIPVAISDQSSDITIKDEDAKHCIYLVKDMRNAGDAYKGEGVMQGYLFFEVNDVNPLNTLSFQLENGKLLWDVVVLFAANINYDAEAGRPRVQCNPNVQYLLDNNETLLQPLRRRGVKVLLGLLGNHDITGLAQLSEQGAKDFAREVAQYCKAYNLDGVNYDDEYSNSPDLSNPSLTNPSTAAAARLCYETKQAMPDKLVTVFDWGQMYGVATVDGVDAKEWIDIVVANYGSAAYPIGQMTKKQCSGISMEFNLGGGGSLSASKAQSMIDGGYGWFMGFAPSPAKYGSVFSRLQGGGEVLYGSNVAAPTIFYKKNDPTPYKYPDDL"}}, "test_in_all_cases": "glycan array binding signal (z-score within array); higher = stronger binding", "conditions_in_all_cases": "glycan notation: IUPAC condensed, linker removed", "key": {"[1]": {"biological_target": "Fuc(a1-2)Gal(b1-4)GlcNAc(b1-3)Gal(b1-4)GlcNAc(b1-3)Gal(b1-4)GlcNAc", "outline": "(§1)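 Arrays were curated from the Consortium for Functional Glycomics database, 3228 in total, and kept only where the protein sequence was available. Binding is expressed as a within-array Z-score. This score was averaged across arrays of the same protein sequence at different concentrations or buffers and across linkers, and negative values can be read as non-binding.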"}, "[2]": {"biological_target": "Fuc(a1-2)Gal(b1-4)GlcNAc(b1-3)GalNAc", "outline": "as §1"}, "[3]": {"biological_target": "Fuc(a1-2)Gal(b1-4)GlcNAc(b1-3)[Fuc(a1-2)Gal(b1-4)GlcNAc(b1-6)]GalNAc", "outline": "as §1"}, "[4]": {"biological_target": "Fuc(a1-2)Gal(b1-4)GlcNAc(b1-3)[Fuc(a1-3)[Gal(b1-4)]GlcNAc(b1-6)]Gal(b1-4)Glc", "outline": "as §1"}, "[5]": {"biological_target": "Fuc(a1-2)Gal(b1-4)GlcNAc(b1-6)GalNAc", "outline": "as §1"}, "[6]": {"biological_target": "Fuc(a1-2)Gal(b1-4)GlcNAc6S", "outline": "as §1"}, "[7]": {"biological_target": "Fuc(a1-2)Gal(b1-4)[Fuc(a1-3)]GlcNAc", "outline": "as §1"}, "[8]": {"biological_target": "Fuc(a1-2)Gal(b1-4)[Fuc(a1-3)]GlcNAc(b1-2)Man(a1-3)[Fuc(a1-2)Gal(b1-4)[Fuc(a1-3)]GlcNAc(b1-2)Man(a1-6)]Man(b1-4)GlcNAc(b1-4)[Fuc(a1-6)]GlcNAc", "outline": "as §1"}, "[9]": {"biological_target": "Fuc(a1-2)Gal(b1-4)[Fuc(a1-3)]GlcNAc(b1-2)[Fuc(a1-2)Gal(b1-4)[Fuc(a1-3)]GlcNAc(b1-4)]Man(a1-3)[Fuc(a1-2)Gal(b1-4)[Fuc(a1-3)]GlcNAc(b1-2)Man(a1-6)]Man(b1-4)GlcNAc(b1-4)GlcNAc", "outline": "as §1"}, "[10]": {"biological_target": "Fuc(a1-2)Gal(b1-4)[Fuc(a1-3)]GlcNAc(b1-3)Gal(b1-4)[Fuc(a1-3)]GlcNAc", "outline": "as §1"}, "[11]": {"biological_target": "Fuc(a1-2)Gal(b1-4)[Fuc(a1-3)]GlcNAc(b1-3)Gal(b1-4)[Fuc(a1-3)]GlcNAc(b1-3)Gal(b1-4)[Fuc(a1-3)]GlcNAc", "outline": "as §1"}, "[12]": {"biological_target": "Fuc(a1-2)Gal(b1-4)[Fuc(a1-3)]GlcNAc(b1-3)GalNAc", "outline": "as §1"}, "[13]": {"biological_target": "Fuc(a1-2)Gal(b1-4)[Fuc(a1-3)]GlcNAc(b1-3)[Neu5Ac(a2-6)Gal(b1-4)GlcNAc(b1-6)]Gal(b1-4)Glc", "outline": "as §1"}, "[14]": {"biological_target": "Fuc(a1-2)Gal3S(b1-4)GlcNAc", "outline": "as §1"}, "[15]": {"biological_target": "Fuc(a1-2)Gal6S(b1-3)GlcNAc", "outline": "as §1"}, "[16]": {"biological_target": "Fuc(a1-2)Gal6S(b1-3)GlcNAc6S", "outline": "as §1"}, "Fuc(a1-2)Gal6S(b1-4)Glc": {"biological_target": "Fuc(a1-2)Gal6S(b1-4)Glc", "outline": "as §1"}, "[17]": {"biological_target": "Fuc(a1-2)Gal6S(b1-4)Glc6S", "outline": "as §1"}, "Fuc(a1-2)[Gal(a1-3)]Gal": {"biological_target": "Fuc(a1-2)[Gal(a1-3)]Gal", "outline": "as §1"}, "[18]": {"biological_target": "Fuc(a1-2)[Gal(a1-3)]Gal(b1-3)GalNAc", "outline": "as §1"}, "[19]": {"biological_target": "Fuc(a1-2)[Gal(a1-3)]Gal(b1-3)GalNAc(b1-3)Gal(a1-4)Gal(b1-4)Glc", "outline": "as §1"}, "[20]": {"biological_target": "Fuc(a1-2)[Gal(a1-3)]Gal(b1-3)GlcNAc", "outline": "as §1"}, "[21]": {"biological_target": "Fuc(a1-2)[Gal(a1-3)]Gal(b1-3)GlcNAc(b1-2)Man(a1-3)[Fuc(a1-2)[Gal(a1-3)]Gal(b1-3)GlcNAc(b1-2)Man(a1-6)]Man(b1-4)GlcNAc(b1-4)GlcNAc", "outline": "as §1"}, "[22]": {"biological_target": "Fuc(a1-2)[Gal(a1-3)]Gal(b1-3)GlcNAc(b1-2)Man(a1-3)[Fuc(a1-2)[Gal(a1-3)]Gal(b1-3)GlcNAc(b1-2)Man(a1-6)]Man(b1-4)GlcNAc(b1-4)[Fuc(a1-6)]GlcNAc", "outline": "as §1"}, "[23]": {"biological_target": "Fuc(a1-2)[Gal(a1-3)]Gal(b1-3)GlcNAc(b1-3)GalNAc", "outline": "as §1"}, "[24]": {"biological_target": "Fuc(a1-2)[Gal(a1-3)]Gal(b1-3)GlcNAc(b1-6)GalNAc", "outline": "as §1"}, "[25]": {"biological_target": "Fuc(a1-2)[Gal(a1-3)]Gal(b1-4)Glc", "outline": "as §1"}, "[26]": {"biological_target": "Fuc(a1-2)[Gal(a1-3)]Gal(b1-4)GlcNAc", "outline": "as §1"}, "[27]": {"biological_target": "Fuc(a1-2)[Gal(a1-3)]Gal(b1-4)GlcNAc(b1-2)Man", "outline": "as §1"}, "[28]": {"biological_target": "Fuc(a1-2)[Gal(a1-3)]Gal(b1-4)GlcNAc(b1-2)Man(a1-3)[Fuc(a1-2)[Gal(a1-3)]Gal(b1-4)GlcNAc(b1-2)Man(a1-6)]Man(b1-4)GlcNAc(b1-4)GlcNAc", "outline": "as §1"}, "[29]": {"biological_target": "Fuc(a1-2)[Gal(a1-3)]Gal(b1-4)GlcNAc(b1-2)Man(a1-3)[Fuc(a1-2)[Gal(a1-3)]Gal(b1-4)GlcNAc(b1-2)Man(a1-6)]Man(b1-4)GlcNAc(b1-4)[Fuc(a1-6)]GlcNAc", "outline": "as §1"}, "[30]": {"biological_target": "Fuc(a1-2)[Gal(a1-3)]Gal(b1-4)GlcNAc(b1-3)GalNAc", "outline": "as §1"}, "[31]": {"biological_target": "Fuc(a1-2)[Gal(a1-3)]Gal(b1-4)GlcNAc(b1-3)[Fuc(a1-2)[Gal(a1-3)]Gal(b1-4)GlcNAc(b1-6)]GalNAc", "outline": "as §1"}, "[32]": {"biological_target": "Fuc(a1-2)[Gal(a1-3)]Gal(b1-4)GlcNAc(b1-6)GalNAc", "outline": "as §1"}, "[33]": {"biological_target": "Fuc(a1-2)[Gal(a1-3)]Gal(b1-4)[Fuc(a1-3)]Glc", "outline": "as §1"}, "[34]": {"biological_target": "Fuc(a1-2)[Gal(a1-3)]Gal(b1-4)[Fuc(a1-3)]GlcNAc", "outline": "as §1"}, "[35]": {"biological_target": "Fuc(a1-2)[Gal(a1-3)]Gal(b1-4)[Fuc(a1-3)]GlcNAc(b1-3)GalNAc", "outline": "as §1"}}, "note": "The other results are listed elsewhere or left out.", "data": [{"binder": "B1", "values": [{"measurement": "glycan array binding signal (z-score)", "setting": "[1]", "value": -0.247}, {"measurement": "glycan array binding signal (z-score)", "setting": "[2]", "value": -0.244}, {"measurement": "glycan array binding signal (z-score)", "setting": "[3]", "value": -0.308}, {"measurement": "glycan array binding signal (z-score)", "setting": "[4]", "value": -0.158}, {"measurement": "glycan array binding signal (z-score)", "setting": "[5]", "value": -0.176}, {"measurement": "glycan array binding signal (z-score)", "setting": "[6]", "value": -0.166}, {"measurement": "glycan array binding signal (z-score)", "setting": "[7]", "value": -0.147}, {"measurement": "glycan array binding signal (z-score)", "setting": "[8]", "value": -0.102}, {"measurement": "glycan array binding signal (z-score)", "setting": "[9]", "value": -0.14}, {"measurement": "glycan array binding signal (z-score)", "setting": "[10]", "value": -0.17}, {"measurement": "glycan array binding signal (z-score)", "setting": "[11]", "value": -0.078}, {"measurement": "glycan array binding signal (z-score)", "setting": "[12]", "value": 0.134}, {"measurement": "glycan array binding signal (z-score)", "setting": "[13]", "value": -0.167}, {"measurement": "glycan array binding signal (z-score)", "setting": "[14]", "value": -0.216}, {"measurement": "glycan array binding signal (z-score)", "setting": "[15]", "value": -0.203}, {"measurement": "glycan array binding signal (z-score)", "setting": "[16]", "value": 0.57}, {"measurement": "glycan array binding signal (z-score)", "setting": "Fuc(a1-2)Gal6S(b1-4)Glc", "value": 0.243}, {"measurement": "glycan array binding signal (z-score)", "setting": "[17]", "value": -0.155}, {"measurement": "glycan array binding signal (z-score)", "setting": "Fuc(a1-2)[Gal(a1-3)]Gal", "value": -0.002}, {"measurement": "glycan array binding signal (z-score)", "setting": "[18]", "value": -0.059}, {"measurement": "glycan array binding signal (z-score)", "setting": "[19]", "value": -0.157}, {"measurement": "glycan array binding signal (z-score)", "setting": "[20]", "value": 0.03}, {"measurement": "glycan array binding signal (z-score)", "setting": "[21]", "value": -0.325}, {"measurement": "glycan array binding signal (z-score)", "setting": "[22]", "value": 0.237}, {"measurement": "glycan array binding signal (z-score)", "setting": "[23]", "value": -0.07}, {"measurement": "glycan array binding signal (z-score)", "setting": "[24]", "value": 0.067}, {"measurement": "glycan array binding signal (z-score)", "setting": "[25]", "value": -0.273}, {"measurement": "glycan array binding signal (z-score)", "setting": "[26]", "value": -0.15}, {"measurement": "glycan array binding signal (z-score)", "setting": "[27]", "value": -0.229}, {"measurement": "glycan array binding signal (z-score)", "setting": "[28]", "value": -0.253}, {"measurement": "glycan array binding signal (z-score)", "setting": "[29]", "value": -0.327}, {"measurement": "glycan array binding signal (z-score)", "setting": "[30]", "value": -0.291}, {"measurement": "glycan array binding signal (z-score)", "setting": "[31]", "value": -0.016}, {"measurement": "glycan array binding signal (z-score)", "setting": "[32]", "value": 0.007}, {"measurement": "glycan array binding signal (z-score)", "setting": "[33]", "value": -0.184}, {"measurement": "glycan array binding signal (z-score)", "setting": "[34]", "value": -0.205}, {"measurement": "glycan array binding signal (z-score)", "setting": "[35]", "value": -0.028}]}]}
